{
  "source": "the supplement of paper PMC11283458",
  "note": "Counter-ions that a name gives are not always drawn. This is one part of the list. Repeats are few or missing, and single values can be far off.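 Also: compounds at 4 µM (PKI library 0.5 µM) on Dox-inducible N2A Flp-In cells with PEST-tagged luciferases, 384-well plates, B-score from per-plate median-polish residual over median absolute residual.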",
  "data": [
    {"system": "Mef2d microexon dual Nano/Firefly luciferase splicing reporter in Neuro-2a cells", "assay": "B-score of Nano/Firefly luminescence ratio, V2 Mef2d microexon reporter (B-score (plate-normalised)); higher = more Mef2d microexon inclusion", "settings": "24 h", "values": [
      {"smiles": "O=C(Nc1c[nH]nc1-c1nc2ccc(CN3CCOCC3)cc2[nH]1)NC1CC1", "note": "(0.5 µM)", "B-score": -8.47},
      {"smiles": "CCCCOc1ccc(C2CC(=O)C3=C(C2)c2c(ccc4ccccc24)NC3c2ccc(OC)c(OC)c2)cc1", "note": "(stereo not given) (4 µM)", "B-score": 3.34},
      {"smiles": "O=C(CC1Sc2ccccc2NC1=O)Nc1ccc(C(F)(F)F)cc1", "note": "(stereo not given) (4 µM)", "B-score": 5.05},
      {"smiles": "CCOC(=O)c1cc(-c2csc(Nc3ccccc3)n2)on1", "note": "(4 µM)", "B-score": 1.28},
      {"smiles": "CC(C)(C)c1ccc(-c2nnc(-c3ccccc3NC(=O)C=CC(=O)O)o2)cc1", "note": "(4 µM)", "B-score": 2.4},
      {"smiles": "Nc1nc(=S)c2ncn([C@@H]3O[C@H](CO)[C@@H](O)[C@H]3O)c2[nH]1", "note": "[Thioguanosine] (4 µM)", "B-score": -13.2},
      {"smiles": "Oc1ccc(-c2ccc(-c3cc(Nc4ccc(CNC5CC5)cc4)n[nH]3)cc2)c(O)c1", "note": "[TCS 2312 dihydrochloride, TCS-2312] (0.5 µM)", "B-score": -7.25},
      {"smiles": "CC(C)ON([C@@H](C(=O)NO)C(C)C)S(=O)(=O)c1ccc(-c2ccccc2)cc1", "note": "(4 µM)", "B-score": 7.47},
      {"smiles": "CNS(=O)(=O)Nc1nccc(Cc2c(C)c3ccc(Oc4ncccn4)cc3oc2=O)c1F", "note": "(0.5 µM)", "B-score": 4.44},
      {"smiles": "C=CCn1c(N)c(C(=O)NN=Cc2cccs2)sc1=S", "note": "(4 µM)", "B-score": 2.21},
      {"smiles": "COc1cc(CNc2ccc3c(c2)CCN3C(C)=O)cc(OC)c1OC", "note": "(4 µM)", "B-score": -10.1},
      {"smiles": "Cn1cnc([N+](=O)[O-])c1Sc1ncnc2[nH]cnc12", "note": "[Azathioprine] (4 µM)", "B-score": -7.73},
      {"smiles": "O=[N+]([O-])c1ccc(N2CCCN(C(=S)Nc3ccc(Cl)cc3Cl)CC2)nc1", "note": "(4 µM)", "B-score": -4.72},
      {"smiles": "CN(Cc1cnc2nc(N)nc(N)c2n1)c1ccc(C(=O)N[C@@H](CCC(=O)O)C(=O)O)cc1", "note": "[Methotrexate] (4 µM)", "B-score": -10.6},
      {"smiles": "Cc1ccc(NC(=O)c2coc(Br)c2)nc1", "note": "(4 µM)", "B-score": -14.3}
    ]}
  ]
}
